# In PubChem BioAssay AID1030 (National Center for Advancing Translational Sciences (NCATS), 2008):
# Hit rate of the full screen: of about 220,000 compounds, about 16,000 (7.3%) were called active. This list was built around the results that the source calls inconclusive (neither active nor inactive); the mix of calls is not that of the screen. The call rests on the fitted dose curve; in most records, active means well fitted inhibition curve with a large enough effect (not every such curve was filed as active); inconclusive means small, poorly fitted or top-dose-only effect, or another doubt; inactive means no such curve, though single readings can be large or run the other way. Potencies of inconclusive entries are left out as doubtful fits.
# Target: Aldehyde dehydrogenase 1A1 (Homo sapiens) (UniProt P00352)
# Sequence of UniProt P00352 (P00352 whole entry, looked up): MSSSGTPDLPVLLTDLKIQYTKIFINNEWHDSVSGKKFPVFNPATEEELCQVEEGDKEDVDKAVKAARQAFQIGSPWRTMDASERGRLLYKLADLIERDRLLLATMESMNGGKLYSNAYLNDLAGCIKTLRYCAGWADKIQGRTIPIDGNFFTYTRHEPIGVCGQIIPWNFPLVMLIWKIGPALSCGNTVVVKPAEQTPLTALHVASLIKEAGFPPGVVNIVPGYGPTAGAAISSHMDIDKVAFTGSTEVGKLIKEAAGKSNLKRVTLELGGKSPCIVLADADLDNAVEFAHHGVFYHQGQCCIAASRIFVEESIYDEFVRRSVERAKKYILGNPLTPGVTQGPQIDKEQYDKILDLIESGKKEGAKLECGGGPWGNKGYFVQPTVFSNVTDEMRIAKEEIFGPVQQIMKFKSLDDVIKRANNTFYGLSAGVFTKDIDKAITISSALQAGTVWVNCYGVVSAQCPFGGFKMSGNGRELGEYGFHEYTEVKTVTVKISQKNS
# Test: qHTS Assay for Inhibitors of Aldehyde Dehydrogenase 1 (ALDH1A1);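 on activity, negative = inhibition: plate controls were no enzyme wells and a reference inhibitor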
# Conditions: Purified ALDH1A1, NADH fluorescence, propionaldehyde substrate; series mostly up to 75.3 µM
# Potency means the concentration at half of the fitted maximal effect; tags describe the fitted curve by direction and shape.
Compound,Potency,"activity, negative = inhibition"
C/C(CCc1ccco1)=N\NC(=O)CNc1c(Br)cc(Br)cc1Br,"inconclusive [inhibitor, partial curve]",
COc1ccc(C(=O)/C=C/Nc2ccc(S(=O)(=O)Nc3onc(C)c3C)cc2)cc1,"inconclusive [inhibitor, single point]",
O=C(CSC1=Nc2ccccc2C2=NC(CC(=O)NC3CCCCC3)C(=O)N12)NCc1ccco1 (stereo not given),"inconclusive [inhibitor, partial curve]",
CC(C)c1ccc(NC(=O)Cn2cccc2C2=NC(c3ccccc3)CO2)cc1 (stereo not given),"inconclusive [inhibitor, single point]",
COc1ccc(C)cc1S(=O)(=O)N(CC(N)=O)Cc1ccccc1,"inconclusive [inhibitor, single point]",
CN1N=C2c3ccccc3CCC2C1c1ccc(Cl)cc1 (stereo not given),"inconclusive [inhibitor, single point]",
O=C(Nc1cccc(-c2nc3ccccc3s2)c1)C1=COCCO1,"inconclusive [inhibitor, single point]",
Fc1ccc(NC(=S)Nc2ccc(Cl)cc2)cc1,inactive,
COc1ccc(C(=O)OCc2cc3cccc(C)c3[nH]c2=O)cc1,"inconclusive [inhibitor, single point]",
CCCS(=O)(=O)NCCc1cc2c(C)ccc(C)c2[nH]c1=O,"inconclusive [inhibitor, partial curve]",
NC(=O)c1cc([N+](=O)[O-])ccc1NCCN1C(=O)c2ccc(C(=O)O)cc2C1=O,"inconclusive [inhibitor, partial curve]",
Cc1noc(C)c1C(=O)Nc1sc2c(c1C(N)=O)CCCCC2,active: 7.94 µM,
CN1CCN(Cc2nc(Cc3ccccc3)no2)CC1c1ccccc1 (stereo not given),"inconclusive [inhibitor, single point]",
CC(C)(C)c1ccc(/C([O-])=C(/C(=S)NCc2ccco2)[n+]2ccccc2)cc1,active: 10 µM,
CC(C)c1cccc2nc3c(c([Si](C)(C)C(C)(C)C)c12)Cn1c-3cccc1=O,"inconclusive [inhibitor, partial curve]",
S=P(N1CC1)(N1CC1)N1CC1,inactive,
C=CCn1c(SCC(=O)OCc2ccccc2)nc2c1c(=O)n(C)c(=O)n2C,"inconclusive [inhibitor, single point]",
COc1ccc(NC(=O)c2ccc3ccccc3n2)cc1S(=O)(=O)N1CCCCC1,inactive,
CCN1C(=O)c2cccc3c(S(=O)(=O)Nc4ccncc4)ccc1c23,"inconclusive [inhibitor, partial curve]",
CCOC(=O)c1cc2c(=O)n3ccccc3nc2n(CC(C)C)c1=NC(=O)c1ccco1,"inconclusive [inhibitor, partial curve]",
Cc1nc(Nc2ccc(C(=O)O)cc2)sc1-c1ccccc1,inactive,
CC(C)C(=O)Nc1ccc(NC(=O)c2ccco2)cn1,active: 28.2 µM,
COc1ccc(/C=N/NC(=O)CNC(=O)c2ccc(S(=O)(=O)N3CCCC3)cc2)c(OC)c1,"inconclusive [inhibitor, single point]",
NC(=O)c1ccc(N2CCCCCC2)c([N+](=O)[O-])c1,"inconclusive [inhibitor, partial curve, poor fit]",

Compound,Potency,"activity, negative = inhibition"
CC1(C)OC[C@@H]2O[C@H](n3cnc4c(N)nc(Cl)nc43)[C@@H](OS(C)(=O)=O)[C@@H]2O1,,inactive: -9.29% [at 13.5 µM]
Cc1ccc(NC(=O)Nc2cccn(Cc3c(F)cccc3Cl)c2=O)cc1,"inconclusive [inhibitor, partial curve]",
Cc1ccc(C(=O)CNc2cccc(Cl)c2)cc1,active: 22.4 µM,
O=c1[nH]c2ccc(N/C(=N/S(=O)(=O)c3ccccc3)c3ccccc3)cc2[nH]1,"inconclusive [inhibitor, single point]",
COC(=O)[C@@H]1C[C@@H]2CC[C@@H](O)C[C@@H]2N1CC1CCCCC1,"inconclusive [inhibitor, single point]",
COc1ccc(CNC(=O)CSc2nnnn2-c2ccccc2)cc1,active: 11.2 µM,
O=C1CCN(S(=O)(=O)c2ccccc2)C2CCCCC12 (stereo not given),"inconclusive [inhibitor, partial curve]",
COc1ccc(C2=NO[C@@H]3C(=O)N(c4ccc5c(c4)OCCO5)C(=O)[C@H]23)cc1OC,"inconclusive [inhibitor, single point]",
CCOC(=O)CC1COCCN1Cc1cn(C)nc1-c1ccccc1F (stereo not given),active: 10 µM,
CCn1c(O)c(/C=C/C=C/C=Nc2ccccc2)sc1=S,"inconclusive [inhibitor, single point]",
CCCCn1c(SCC(=O)OCC)nc2c1c(=O)[nH]c(=O)n2C,active: 12.6 µM,
Clc1ccc(N=c2ssnc2Cl)nc1,inactive,
CCc1nc2ccc(C(=O)NCc3ccco3)cc2nc1CC,"inconclusive [inhibitor, single point]",
NC(=O)c1ccc(NC(=O)COC(=O)c2ccccc2Nc2ccccc2)cc1,inactive,
O=C1CC(/C=C/c2cccnc2)=Nc2ccccc2N1,"inconclusive [inhibitor, partial curve]",
COc1cc2c(-c3ccc(O)cc3)nc3c(c(C)nn3-c3ccccc3)c2cc1OC,"inconclusive [inhibitor, single point]",
CC(C)Cn1c(SCC(=O)N2CCN(C(=O)c3ccco3)CC2)nc2ccccc2c1=O,active: 31.6 µM,
CCOC(=O)c1c(NC(=O)c2cnn3c2NC(c2cccc(OC)c2)CC3C(F)(F)F)sc2c1CCCC2 (stereo not given),inactive,
CCCCN(C)C1CCN(C(=S)Nc2cccc(SC)c2)CC1,inactive,
CCS(=O)(=O)N1Cc2ccccc2CC1C(=O)Nc1nc2ccc(C)cc2s1 (stereo not given),"inconclusive [inhibitor, single point]",
CCc1ccc(N2CN(CCc3ccccc3)CNC2=S)cc1,"inconclusive [inhibitor, single point]",
COc1ccc2cc3c(N)c(C(=O)NCc4ccco4)sc3nc2c1,"inconclusive [inhibitor, single point]",
CCOC(=O)CCNC(C(=O)OCC)c1ccccc1 (stereo not given),inactive,
CS/C(=N\S(=O)(=O)c1cccs1)Nc1cccc(Cl)c1C,"inconclusive [inhibitor, single point]",

Compound,Potency,"activity, negative = inhibition"
O=C(CSc1nc2ncc(Br)cc2[nH]1)c1cccc([N+](=O)[O-])c1,"inconclusive [inhibitor, single point]",
COc1cccc(C2=NOC(C(=O)Nc3cc(C)nn3-c3ccccc3)C2)c1OC (stereo not given),"inconclusive [inhibitor, single point]",
O=C(c1cc2ccccc2c(=O)o1)N1CCCCCC1,"inconclusive [inhibitor, single point]",
CCCCN(CC)S(=O)(=O)c1ccc(C(=O)Nc2nnc(-c3ccccc3Cl)o2)cc1,inactive,
Cc1ccc2[nH]c3c(=O)n(Cc4ccncc4)cnc3c2c1,"inconclusive [inhibitor, single point]",
Cc1ccc(-n2c(SCC(=O)NCc3cccs3)nnc2-c2ccoc2C)cc1,"inconclusive [inhibitor, single point]",
CCCOc1ccc2oc(=O)c3c(c2c1)CCCN3C(=O)CN(C)Cc1ccccc1,"inconclusive [inhibitor, partial curve]",
COC(=O)N1[C@H](C)C=C[C@]1(Cc1ccccc1)C(=O)NCc1ccc(N(C)C)cc1,active: 8.91 µM,
COc1ccc(NC(=O)c2ccc3c(=O)n(-c4ccc(OC)cc4OC)c(=S)[nH]c3c2)cc1,active: 12.6 µM,
COC(=O)CSc1n[nH]c(-c2ccncc2)n1,inactive,
CCCCOC(=O)c1[nH]c2c(c1C)C(=O)CC(c1cc(OC)c(OC)c(OC)c1)C2 (stereo not given),active: 5.01 µM,
N#Cc1c(-c2ccc3c(c2)OCO3)ccn2nc(-c3cccc(C(F)(F)F)c3)nc12,"inconclusive [inhibitor, partial curve]",
CC(=O)Nc1ccc(S(=O)(=O)NCC2CCC(C(=O)NC(C)c3ccc4c(c3)OCCO4)CC2)cc1 (stereo not given),"inconclusive [inhibitor, single point]",
O=C(O)/C(=C\c1ccccc1)Cc1ccccc1,,inactive: -1.46% [at 13.5 µM]
CC1C/C(=N/Nc2nc3ccccc3[nH]2)CC(C)(C)C1 (stereo not given),"inconclusive [inhibitor, single point]",
O=C(c1ccc(Cl)s1)N1CCN(c2nc3ccccc3s2)CC1,"inconclusive [inhibitor, single point]",
COc1cc(/C=C2\C(=N)N3N=CSC3=NC2=O)cc(Br)c1OC(=O)c1ccco1,"inconclusive [inhibitor, partial curve, poor fit]",
Oc1c(C(c2ccc(Cl)cc2)N2CCCC2)cc(Cl)c2cccnc12 (stereo not given),active: 14.1 µM,
O=C(NCc1ccc(Cl)cc1)c1n[nH]c([N+](=O)[O-])c1Cl,inactive,
C#CC(C)(C)NC(=O)c1sccc1Oc1ccc(F)cc1[N+](=O)[O-],inactive,
CCOC(=O)Cc1csc(NC(=O)c2cc3ccccc3o2)n1,"inconclusive [inhibitor, partial curve]",
CC1CCCN(S(=O)(=O)c2ccc(NC(=O)CN3CCN(C)CC3)cc2)C1 (stereo not given),"inconclusive [inhibitor, single point]",
